# The list shows a part of the results.
# How the values were obtained:
# Test in all cases: glycan array binding signal (z-score within array); higher = stronger binding
# Conditions in all cases: glycan notation: IUPAC condensed, linker removed
# [1] = target: Gal(b1-3)GlcNAc(b1-2)Man(a1-3)[Gal(b1-3)GlcNAc(b1-2)Man(a1-6)]Man(b1-4)GlcNAc(b1-4)GlcNAc
# Procedure, shortened: (§1)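 The binding signal is a Z-score computed within each array and averaged over linkers. Arrays of the same protein sequence at different concentrations or buffers were also averaged together. Data originate from 3228 arrays in the Consortium for Functional Glycomics database, kept only where the protein sequence was available.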
# [2] = target: Gal(b1-3)GlcNAc(b1-2)Man(a1-3)[Gal(b1-3)GlcNAc(b1-2)Man(a1-6)]Man(b1-4)GlcNAc(b1-4)[Fuc(a1-6)]GlcNAc
# Procedure, shortened: as §1
# [3] = target: Gal(b1-3)GlcNAc(b1-2)Man(a1-3)[GlcNAc(b1-4)][Gal(b1-3)GlcNAc(b1-2)Man(a1-6)]Man(b1-4)GlcNAc(b1-4)GlcNAc
# Procedure, shortened: as §1
# [4] = target: Gal(b1-3)GlcNAc(b1-2)[Gal(b1-3)GlcNAc(b1-6)]Man(a1-6)[Gal(b1-3)GlcNAc(b1-2)Man(a1-3)]Man(b1-4)GlcNAc(b1-4)GlcNAc
# Procedure, shortened: as §1
# [5] = target: Gal(b1-3)GlcNAc(b1-3)Gal(b1-3)GlcNAc
# Procedure, shortened: as §1
# [6] = target: Gal(b1-3)GlcNAc(b1-3)Gal(b1-4)Glc
# Procedure, shortened: as §1
# [7] = target: Gal(b1-3)GlcNAc(b1-3)Gal(b1-4)GlcNAc
# Procedure, shortened: as §1
# [8] = target: Gal(b1-3)GlcNAc(b1-3)Gal(b1-4)GlcNAc(b1-2)Man(a1-3)[Gal(b1-3)GlcNAc(b1-3)Gal(b1-4)GlcNAc(b1-2)Man(a1-6)]Man(b1-4)GlcNAc(b1-4)GlcNAc
# Procedure, shortened: as §1
# [9] = target: Gal(b1-3)GlcNAc(b1-3)Gal(b1-4)GlcNAc(b1-2)[Gal(b1-3)GlcNAc(b1-3)Gal(b1-4)GlcNAc(b1-6)]Man(a1-6)[Gal(b1-3)GlcNAc(b1-3)Gal(b1-4)GlcNAc(b1-2)Man(a1-3)]Man(b1-4)GlcNAc(b1-4)[Fuc(a1-6)]GlcNAc
# Procedure, shortened: as §1
# [10] = target: Gal(b1-3)GlcNAc(b1-3)Gal(b1-4)GlcNAc(b1-3)Gal(b1-4)GlcNAc(b1-2)[Gal(b1-3)GlcNAc(b1-3)Gal(b1-4)GlcNAc(b1-3)Gal(b1-4)GlcNAc(b1-6)]Man(a1-6)[Gal(b1-3)GlcNAc(b1-3)Gal(b1-4)GlcNAc(b1-3)Gal(b1-4)GlcNAc(b1-2)Man(a1-3)]Man(b1-4)GlcNAc(b1-4)[Fuc(a1-6)]GlcNAc
# Procedure, shortened: as §1
# [11] = target: Gal(b1-3)GlcNAc(b1-3)Gal(b1-4)GlcNAc(b1-6)[Gal(b1-3)GlcNAc(b1-3)]Gal(b1-4)Glc
# Procedure, shortened: as §1
# [12] = target: Gal(b1-3)GlcNAc(b1-3)Gal(b1-4)[Fuc(a1-3)]GlcNAc
# Procedure, shortened: as §1
# [13] = target: Gal(b1-3)GlcNAc(b1-3)Gal(b1-4)[Fuc(a1-3)]GlcNAc(b1-6)[Gal(b1-3)GlcNAc(b1-3)]Gal(b1-4)Glc
# Procedure, shortened: as §1
# [14] = target: Gal(b1-3)GlcNAc(b1-3)GalNAc
# Procedure, shortened: as §1
# [15] = target: Gal(b1-3)GlcNAc(b1-6)Gal(b1-4)GlcNAc
# Procedure, shortened: as §1
# [16] = target: Gal(b1-3)GlcNAc(b1-6)GalNAc
# Procedure, shortened: as §1
# [17] = target: Gal(b1-3)GlcNAc(b1-6)[Gal(b1-3)]GalNAc
# Procedure, shortened: as §1
# Gal(b1-3)GlcNAc6S = target: Gal(b1-3)GlcNAc6S
# Procedure, shortened: as §1
# [18] = target: Gal(b1-3)[Fuc(a1-4)]GlcNAc
# Procedure, shortened: as §1
# [19] = target: Gal(b1-3)[Fuc(a1-4)]GlcNAc(b1-2)Man
# Procedure, shortened: as §1
# [20] = target: Gal(b1-3)[Fuc(a1-4)]GlcNAc(b1-2)Man(a1-3)[Gal(b1-3)[Fuc(a1-4)]GlcNAc(b1-2)Man(a1-6)]Man(b1-4)GlcNAc(b1-4)[Fuc(a1-6)]GlcNAc
# Procedure, shortened: as §1
# [21] = target: Gal(b1-3)[Fuc(a1-4)]GlcNAc(b1-3)Gal(b1-3)[Fuc(a1-4)]GlcNAc
# Procedure, shortened: as §1
# [22] = target: Gal(b1-3)[Fuc(a1-4)]GlcNAc(b1-3)Gal(b1-4)[Fuc(a1-3)]GlcNAc
# Procedure, shortened: as §1
# [23] = target: Gal(b1-3)[Fuc(a1-4)]GlcNAc(b1-6)GalNAc
# Procedure, shortened: as §1
# [24] = target: Gal(b1-3)[GlcNAc(b1-6)]GalNAc
# Procedure, shortened: as §1
# [25] = target: Gal(b1-3)[Neu5Ac(a2-6)]GalNAc
# Procedure, shortened: as §1
# [26] = target: Gal(b1-3)[Neu5Ac(a2-6)]GlcNAc(b1-4)Gal(b1-4)Glc
# Procedure, shortened: as §1
# [27] = target: Gal(b1-3)[Neu5Ac(b2-6)]GalNAc
# Procedure, shortened: as §1
# Gal(b1-4)Gal = target: Gal(b1-4)Gal
# Procedure, shortened: as §1
# [28] = target: Gal(b1-4)GalNAc(a1-3)[Fuc(a1-2)]Gal(b1-4)GlcNAc
# Procedure, shortened: as §1
# [29] = target: Gal(b1-4)GalNAc(b1-3)[Fuc(a1-2)]Gal(b1-4)GlcNAc
# Procedure, shortened: as §1
# Gal(b1-4)Glc = target: Gal(b1-4)Glc
# Procedure, shortened: as §1
# Gal(b1-4)Glc6S = target: Gal(b1-4)Glc6S
# Procedure, shortened: as §1
# Gal(b1-4)GlcNAc = target: Gal(b1-4)GlcNAc
# Procedure, shortened: as §1
# [30] = target: Gal(b1-4)GlcNAc(a1-6)Gal(b1-4)GlcNAc
# Procedure, shortened: as §1
# Gal(b1-4)GlcNAc(b1-2)Man = target: Gal(b1-4)GlcNAc(b1-2)Man
# Procedure, shortened: as §1
# [31] = target: Gal(b1-4)GlcNAc(b1-2)Man(a1-3)Man(b1-4)GlcNAc(b1-4)GlcNAc
# Procedure, shortened: as §1
# [32] = target: Gal(b1-4)GlcNAc(b1-2)Man(a1-3)[Gal(b1-4)GlcNAc(b1-2)Man(a1-6)]Man(b1-4)GlcNAc(b1-4)GlcNAc
# Procedure, shortened: as §1
# [33] = target: Gal(b1-4)GlcNAc(b1-2)Man(a1-3)[Gal(b1-4)GlcNAc(b1-2)Man(a1-6)]Man(b1-4)GlcNAc(b1-4)[Fuc(a1-6)]GlcNAc
# Procedure, shortened: as §1
# [34] = target: Gal(b1-4)GlcNAc(b1-2)Man(a1-3)[Gal(b1-4)GlcNAc(b1-2)Man(a1-6)][Gal(b1-4)GlcNAc(b1-4)]Man(b1-4)GlcNAc(b1-4)[Fuc(a1-6)]GlcNAc
# Procedure, shortened: as §1
# [35] = target: Gal(b1-4)GlcNAc(b1-2)Man(a1-3)[Gal(b1-4)GlcNAc(b1-2)Man(a1-6)][GlcNAc(b1-4)]Man(b1-4)GlcNAc(b1-4)[Fuc(a1-6)]GlcNAc
# Procedure, shortened: as §1
# [36] = target: Gal(b1-4)GlcNAc(b1-2)Man(a1-3)[GlcNAc(b1-2)Man(a1-6)]Man(b1-4)GlcNAc(b1-4)GlcNAc
# Procedure, shortened: as §1
# [37] = target: Gal(b1-4)GlcNAc(b1-2)Man(a1-3)[GlcNAc(b1-4)][Gal(b1-4)GlcNAc(b1-2)Man(a1-6)]Man(b1-4)GlcNAc(b1-4)GlcNAc
# Procedure, shortened: as §1
# [38] = target: Gal(b1-4)GlcNAc(b1-2)Man(a1-3)[Man(a1-6)]Man(b1-4)GlcNAc(b1-4)GlcNAc
# Procedure, shortened: as §1
# [39] = target: Gal(b1-4)GlcNAc(b1-2)Man(a1-6)Man(b1-4)GlcNAc(b1-4)GlcNAc
# Procedure, shortened: as §1
binder,measurement,setting,value
"CFEM-CGl (Candida glabrata), Q6FRS0 (protein) VLATPPACLLACVAQVSKQSSQCHTLNQVGCFCENENTAIKNCLDSICPNGNSDAAYTAFKNSCGDVGKAVASV",glycan array binding signal (z-score),[1],-0.248
same,glycan array binding signal (z-score),[2],-0.387
same,glycan array binding signal (z-score),[3],-0.231
same,glycan array binding signal (z-score),[4],-0.388
same,glycan array binding signal (z-score),[5],-0.175
same,glycan array binding signal (z-score),[6],-0.457
same,glycan array binding signal (z-score),[7],-0.24
same,glycan array binding signal (z-score),[8],-0.236
same,glycan array binding signal (z-score),[9],0.279
same,glycan array binding signal (z-score),[10],0.386
same,glycan array binding signal (z-score),[11],-0.31
same,glycan array binding signal (z-score),[12],-0.497
same,glycan array binding signal (z-score),[13],-0.431
same,glycan array binding signal (z-score),[14],-0.243
same,glycan array binding signal (z-score),[15],-0.142
same,glycan array binding signal (z-score),[16],-0.334
same,glycan array binding signal (z-score),[17],0.496
same,glycan array binding signal (z-score),Gal(b1-3)GlcNAc6S,-0.272
same,glycan array binding signal (z-score),[18],-0.307
same,glycan array binding signal (z-score),[19],-0.087
same,glycan array binding signal (z-score),[20],-0.165
same,glycan array binding signal (z-score),[21],-0.485
same,glycan array binding signal (z-score),[22],-0.158
same,glycan array binding signal (z-score),[23],0.183
same,glycan array binding signal (z-score),[24],0.824
same,glycan array binding signal (z-score),[25],2.93
same,glycan array binding signal (z-score),[26],-0.359
same,glycan array binding signal (z-score),[27],-0.064
same,glycan array binding signal (z-score),Gal(b1-4)Gal,-0.278
same,glycan array binding signal (z-score),[28],-0.31
same,glycan array binding signal (z-score),[29],-0.247
same,glycan array binding signal (z-score),Gal(b1-4)Glc,-0.358
same,glycan array binding signal (z-score),Gal(b1-4)Glc6S,-0.011
same,glycan array binding signal (z-score),Gal(b1-4)GlcNAc,-0.25
same,glycan array binding signal (z-score),[30],0.356
same,glycan array binding signal (z-score),Gal(b1-4)GlcNAc(b1-2)Man,-0.494
same,glycan array binding signal (z-score),[31],-0.351
same,glycan array binding signal (z-score),[32],-0.128
same,glycan array binding signal (z-score),[33],-0.299
same,glycan array binding signal (z-score),[34],-0.455
same,glycan array binding signal (z-score),[35],-0.334
same,glycan array binding signal (z-score),[36],-0.327
same,glycan array binding signal (z-score),[37],-0.453
same,glycan array binding signal (z-score),[38],-0.303
same,glycan array binding signal (z-score),[39],-0.362

# — the supplement of paper PMC8728848
